Measured values published in the antibiotic and cytotoxicity screens of Wong et al. (2023).
The other results are listed elsewhere or left out.

Experiments:
[1] = system: HSkMC (human skeletal muscle cells); experiment: cytotoxicity call (relative viability < 0.9); settings: 10 µM
[2] = system: HepG2; experiment: cytotoxicity call (relative viability < 0.9); settings: 10 µM
[3] = system: S. aureus RN4220; experiment: growth inhibition call (relative growth <= 0.2); settings: 50 µM

Row | Structure (SMILES) | cytotoxicity call [1] | cytotoxicity call [2] | growth inhibition call [3]
1 | Cc1noc(C)c1NC(=O)N(C)C[C@@H]1OCCCC[C@@H](C)Oc2ccc(NC(=O)Nc3ccc(F)cc3)cc2C(=O)N([C@H](C)CO)C[C@@H]1C | inactive | inactive | inactive
2 | C[C@H](CO)N1C[C@H](C)[C@@H](CN(C)CC2CCOCC2)Oc2cc(C#Cc3cccnc3)ccc2S1(=O)=O | inactive | inactive | inactive
3 | C[C@@H]1CN([C@@H](C)CO)C(=O)c2cccc(NC(=O)Nc3ccc4c(c3)OCO4)c2O[C@H]1CN(C)Cc1ccc(C(F)(F)F)cc1 | active | active | inactive
4 | C[C@@H]1CN([C@@H](C)CO)C(=O)Cc2cc(NC(=O)Cn3cnnn3)ccc2O[C@H]1CN(C)Cc1ccc(C(=O)O)cc1 | inactive | inactive | inactive
5 | C[C@@H]1CCCCO[C@@H](CN(C)Cc2ccc(Cl)c(Cl)c2)[C@@H](C)CN([C@@H](C)CO)C(=O)c2cc(NS(=O)(=O)c3ccccc3)ccc2O1 | active | inactive | inactive
6 | CN1C(=O)c2cc(NC(=O)C3CCC3)ccc2OC[C@@H]2O[C@H](CC(=O)NCCc3ccncc3)CC[C@H]21 | inactive | inactive | inactive
7 | COc1ccc(NC(=O)Nc2ccc3c(c2)CC(=O)N([C@H](C)CO)C[C@@H](C)[C@@H](CN(C)S(C)(=O)=O)O3)cc1 | inactive | inactive | inactive
8 | CO[C@@H]1CN(C)C(=O)c2cc(NC(=O)Nc3ccccc3F)ccc2OC[C@@H](C)N(Cc2ccccc2C(=O)O)C[C@H]1C | inactive | inactive | inactive
9 | CC[C@H](C)[C@H]1O[C@]2(C=C[C@@H]1C)C[C@@H]1C[C@@H](C/C=C(\C)[C@@H](O[C@H]3C[C@H](OC)[C@@H](O[C@H]4C[C@H](OC)[C@@H](NC(C)=O)[C@H](C)O4)[C@H](C)O3)[C@@H](C)/C=C/C=C3\CO[C@@H]4[C@H](O)C(C)=C[C@@H](C(=O)O1)[C@]34O)O2 | active | active | inactive
10 | COc1ccc(NC(=O)Nc2ccc3c(c2)C(=O)N([C@@H](C)CO)C[C@@H](C)[C@H](CN(C)Cc2ccc(Oc4ccccc4)cc2)O3)cc1 | inactive | inactive | inactive
11 | Cc1cc(C(=O)Nc2cccc3c2O[C@@H](CN(C)C(=O)NC(C)C)[C@H](C)CN([C@H](C)CO)C3=O)n(C)n1 | inactive | inactive | inactive
12 | C[C@@H]1CN([C@@H](C)CO)S(=O)(=O)c2ccc(C#CCN(C)C)cc2O[C@@H]1CN(C)Cc1ccccn1 | inactive | inactive | inactive
13 | Clc1ccc(C(Cn2ccnc2)OCc2ccsc2Cl)c(Cl)c1 (stereo not drawn) | inactive | inactive | active
14 | O=C(/C=N/O)NCc1ccccn1 | inactive | active | inactive
15 | C[C@@H]1CCCCO[C@H](CN(C)S(=O)(=O)c2cccs2)[C@H](C)CN([C@@H](C)CO)C(=O)c2cc(NC(=O)c3ccccc3)ccc2O1 | inactive | inactive | inactive
16 | C[C@H]1CN([C@@H](C)CO)C(=O)CCCn2nncc2CO[C@H]1CN(C)S(C)(=O)=O | inactive | inactive | inactive
17 | Cn1sccc1=O | inactive | inactive | inactive
18 | Cc1nc(-c2cccc(F)c2)cs1 | inactive | inactive | inactive
19 | C[C@H](CO)N1C[C@H](C)[C@@H](CN(C)C(=O)Cc2ccccc2)OCCCC[C@H](C)Oc2ccc(NC(=O)Nc3ccc(C(F)(F)F)cc3)cc2C1=O | inactive | inactive | inactive
20 | C[C@H]1CN([C@@H](C)CO)C(=O)c2cc(/C=C/c3ccccc3)cnc2O[C@H]1CN(C)C(=O)CN1CCOCC1 | inactive | inactive | inactive
21 | O=C1c2ccccc2-c2nc(-c3ccccc3)cc3cccc1c23 | inactive | inactive | inactive
22 | Cn1nccc1C(=O)NCCN | inactive | inactive | inactive
23 | Cc1ccc(S(=O)(=O)N(C)C[C@H]2Oc3ncc(-c4ccncc4)cc3C(=O)N([C@@H](C)CO)C[C@H]2C)cc1 | inactive | inactive | inactive
24 | C[C@H](CO)N1C[C@H](C)[C@H](CN(C)C(=O)NC2CCCCC2)OCCCC[C@H](C)Oc2ccc(NC(=O)c3ccncc3)cc2C1=O | inactive | inactive | inactive
25 | C[C@H]1CN([C@@H](C)CO)C(=O)CCCn2nncc2CO[C@H]1CN(C)C(=O)Nc1ccccc1C(F)(F)F | inactive | active | inactive
26 | C[C@@H]1CN([C@H](C)CO)C(=O)c2cc(NC(=O)Nc3cccc4ccccc34)ccc2O[C@@H](C)CCCCO[C@H]1CN(C)Cc1ccc(Cl)c(Cl)c1 | inactive | inactive | inactive
